Measurements as given in the antibiotic and cytotoxicity screens of Wong et al. (2023).
The other results are listed elsewhere or left out.

Tests used:
HSkMC = human skeletal muscle cells; experiment: cytotoxicity call (relative viability < 0.9); conditions: 10 µM
HepG2 = experiment: cytotoxicity call (relative viability < 0.9); conditions: 10 µM
S. aureus RN4220 = experiment: growth inhibition call (relative growth <= 0.2); conditions: 50 µM

Structure (SMILES) | cytotoxicity call (HSkMC) | cytotoxicity call (HepG2) | growth inhibition call (S. aureus RN4220)
C[C@@H]1CN([C@@H](C)CO)C(=O)c2cc(NC(=O)Nc3ccccc3)ccc2O[C@H]1CN(C)Cc1ccc(-c2ccccc2)cc1 | inactive | active | inactive
Cc1cc(C(=O)Nc2cccc3c2O[C@@H](CN(C)C(=O)NC2CCCCC2)[C@@H](C)CN([C@H](C)CO)C3=O)n(C)n1 | inactive | inactive | inactive
COC[C@H](O)CNNC(=O)OC(C)(C)C | inactive | inactive | inactive
C[C@@H]1CCCCO[C@@H](CN(C)C(=O)c2ccncc2)[C@@H](C)CN([C@H](C)CO)C(=O)c2cc(NC(=O)NC3CCCCC3)ccc2O1 | inactive | inactive | inactive
COCC(=O)N1C[C@H](C)[C@H](OC)CN(C)C(=O)c2ccc(NC(=O)c3cc(C)on3)cc2OC[C@@H]1C | inactive | inactive | inactive
Cc1ccc(S(=O)(=O)N2C[C@@H](O)COC[C@H]3O[C@H](CC(=O)NCc4cccc(C(F)(F)F)c4)CC[C@@H]32)cc1 | inactive | inactive | inactive
COc1ccc(S(=O)(=O)N(C)C[C@@H]2Oc3ccc(NC(=O)Cc4ccccc4)cc3C(=O)N([C@@H](C)CO)C[C@@H]2C)cc1 | inactive | inactive | inactive
C[S+](CC[C@H](N)C(=O)O)C[C@H]1O[C@@H](n2cnc3c(N)ncnc32)[C@H](O)[C@@H]1O (stereo partly specified) | inactive | inactive | inactive
C[C@@H]1CN([C@H](C)CO)C(=O)c2cc(NC(=O)Nc3cccc4ccccc34)ccc2O[C@@H](C)CCCCO[C@@H]1CN(C)S(=O)(=O)c1ccccc1 | inactive | inactive | inactive
C[C@H](CO)N1C[C@H](C)[C@H](CN(C)C(=O)Nc2ccccc2)OCCCC[C@H](C)Oc2ccc(NC(=O)c3ccncc3)cc2C1=O | inactive | inactive | inactive
COC(=O)N/N=C/c1ccc([N+](=O)[O-])o1 | inactive | inactive | inactive
C[C@H]1CN([C@@H](C)CO)C(=O)c2cc(NC(=O)CCN3CCOCC3)ccc2O[C@@H]1CN(C)C(=O)Nc1ccccc1 | inactive | inactive | inactive
